Reference: the supplement of paper PMC10338343
± gives the standard deviation. The list shows a part of the results, in another mix than the full data.

Tested on: MIWI (PIWIL1) piRISC loaded with piRNA #1 (30 nt)
Assay: pre-steady-state target cleavage rate (min^-1); MIWI and MILI are mouse PIWI proteins and EfPiwi is from a freshwater sponge; tags in brackets are library labels; higher = faster piRNA-guided slicing of the target
Conditions: guide: piRNA #1 5'p-UGAGGUAGUAGGUUGUAUAGUAUCCAGAGG; auxiliary factor: 500 nM mouse GTSF1
Procedure, shortened: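 In Cleave-'n-Seq, a transcribed, DNA-blocked target RNA library (0.1 nM) was combined with 1 nM active affinity-purified piRISC bearing one synthetic guide, with or without 500 nM GTSF1 partner protein. Reactions ran in HEPES–potassium acetate buffer at 33 °C for 0–8 or 0–960 min. Uncleaved targets were sequenced and normalised to depth and to weakly complementary targets, three trials were pooled, and k3 was capped at 0.0001 min^-1. The pre-steady-state cleavage rate was obtained by fitting a burst-and-steady-state model.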

| Sequence | pre-steady-state target cleavage rate |
| --- | --- |
| GGAGUGGAUACUAUACAACCUAGUACCUCA | 0.37 ± 0.046 |
| GCUCUGGAUACUAUACAACCUACUAGCCUCA | 1.17 ± 0.061 |
| GGAGACCUAUGAUAAGAACCUACUACCUCA | < 0.0001 |
| GGUCUGGAUACAAUAGAACCUACUACCUCA | 1.07 ± 0.076 |
| GGAGAGGAAAGUAUACAACCUACUACCUCA | 0.113 ± 0.016 |
| GGAGACCUAUCUAUACAACCUACUCACCUCA | 0.537 ± 0.059 |
| CCACUGGAUACUAUACAUCCUACUACCUCA | 1.91 ± 0.11 |
| CCUCUGGAUACGUAUACAACCUACUACCUCA | 1.37 ± 0.083 |
| GGAGACCUUACUAUGACAACCUACUACCUCA | 0.856 ± 0.1 |
| GGAGACCUAUGAUAUGUACACUACUACCUCA | 0.00293 ± 0.0026 |
| GGACUGGAUACUAUACAACCUACUACAUCA | 0.33 ± 0.042 |
| GGAGAGGAUACUAGUACAACCUACUACCUCA | 0.299 ± 0.042 |
| CCUCUGGAUACUAUACAACCUAGAUGGAGA [g9:g30:cont:t1A] | 0.00573 ± 0.004 |
| GGAGUGGAUACGUAUACAACCUACUACCUCA | 1.25 ± 0.077 |
| GGAGACCAUCUAUACAACCUACUACCUCA | 1.02 ± 0.1 |
| GGUCUGGAUACUAAACAACCUACUACGUCA | 0.75 ± 0.067 |
| GGAGACCUAACUAUACAACCUAUUACCUCA | 0.598 ± 0.052 |
| GGAGAGGAUACUAUACAACCUACUUCGUCA | 0.00318 ± 0.0019 |
| GGAGUGGAUACUAUUCAAGCUACUACCUCA | 0.915 ± 0.039 |
| GCUCUGGAUACUAUACAACCUAGCUACCUCA | 0.208 ± 0.022 |

| Sequence | pre-steady-state target cleavage rate |
| --- | --- |
| GGUCUGGAUAGUAUACAUCCUACUACCUCA | 0.741 ± 0.083 |
| GGAGACCUUACUAUACAACCUACUUGGUCA | 0.0055 ± 0.0035 |
| GGAGUGGAUACUAUACAACCAUGUACCUCA | 0.00875 ± 0.0027 |
| GGAGACGAUACUAUACCAACCUACUACCUCA | 0.137 ± 0.03 |
| GGAGACCAUACUAUACUACCUACUACGUCA | 0.517 ± 0.032 |
| GGAGACCUAACUAUACAACCUACUACCUGCA | 0.731 ± 0.072 |
| GGAGUCGAAACUAUACAACCUACUACCUCA | 1.32 ± 0.081 |
| CCUCUCGAUACUAUACUACCUACUACCUCA | 1.81 ± 0.12 |
| GGAGACCUAUCUAUACAACCUACUACCGCA | 1.05 ± 0.092 |
| GGAGACCUAUCUAUACAACCUACAUACCUCA | 0.313 ± 0.043 |
| GGAGACCAUACUAUACUACCUACUUCCUCA | 0.154 ± 0.019 |
| CCUCUGGAUAGUAUACAACCUUCUACCUCA | 0.553 ± 0.038 |
| GGAGACGAUUCUAUACAACCUACUACGUCA | 0.92 ± 0.069 |
| GGAGACCAUACUAUACAACCAACAACCUCA | 0.0223 ± 0.0076 |
| CCUCAGGAUACUAUACAACCUACAACCUCA | 1.46 ± 0.09 |
| GGAGACCAUACUCUACAACCUACUACCUCA | 1.24 ± 0.08 |
| CCUCUGGAUACUAUACUACCUACUAGCUCA | 1.34 ± 0.13 |
| GGAGACCUAUGAUAUGAACCUACUACCUCC [g2:g14:cont:t1C] | < 0.0001 |
| GGAGAGGAUACUAUUCAACCAACUACCUCA | 0.0896 ± 0.007 |
| GGAGACGAUACUAUACAACCUACUACCCA | 0.362 ± 0.047 |
